This is an account of results in PubChem BioAssay AID1159614 (National Center for Advancing Translational Sciences (NCATS), 2016).

In all, about 45,000 compounds went through this assay and about 65 (0.1%) were called active. The call rests on the fitted dose curve; in most records, active means well fitted activation curve with a large enough effect; inconclusive means small, poorly fitted or top-dose-only effect; inactive means no such curve, though single readings can be large or run the other way. Some of the results follow.

The target of this assay is Galactocerebrosidase (Homo sapiens) (UniProt P54803). Description: A Novel Cell-Based Assay to Identify Small Molecules for B -Galactocerebrosidase. Further: 0% is about no effect; nearly all actives have a fitted effect of over 65% in size. The note with it: 145M-Twi-hGALC-G270D cells (Twitcher mouse brain line with human GALC G270D), HMU-beta-Gal fluorescence, 48 h; series mostly up to 57.5 µM; activation: at the top concentration. Summed up: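 Mutant human GALC (G270D), stably expressed in a Twitcher mouse brain cell line lacking endogenous GALC, is measured in live-treated cells via 6-hexadecanoylamino-4-methylumbelliferyl-β-galactoside hydrolysis (0.1 mM final, pH 5.2) with fluorescent detection.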
UniProt P54803, sequence (P54803 whole entry, looked up): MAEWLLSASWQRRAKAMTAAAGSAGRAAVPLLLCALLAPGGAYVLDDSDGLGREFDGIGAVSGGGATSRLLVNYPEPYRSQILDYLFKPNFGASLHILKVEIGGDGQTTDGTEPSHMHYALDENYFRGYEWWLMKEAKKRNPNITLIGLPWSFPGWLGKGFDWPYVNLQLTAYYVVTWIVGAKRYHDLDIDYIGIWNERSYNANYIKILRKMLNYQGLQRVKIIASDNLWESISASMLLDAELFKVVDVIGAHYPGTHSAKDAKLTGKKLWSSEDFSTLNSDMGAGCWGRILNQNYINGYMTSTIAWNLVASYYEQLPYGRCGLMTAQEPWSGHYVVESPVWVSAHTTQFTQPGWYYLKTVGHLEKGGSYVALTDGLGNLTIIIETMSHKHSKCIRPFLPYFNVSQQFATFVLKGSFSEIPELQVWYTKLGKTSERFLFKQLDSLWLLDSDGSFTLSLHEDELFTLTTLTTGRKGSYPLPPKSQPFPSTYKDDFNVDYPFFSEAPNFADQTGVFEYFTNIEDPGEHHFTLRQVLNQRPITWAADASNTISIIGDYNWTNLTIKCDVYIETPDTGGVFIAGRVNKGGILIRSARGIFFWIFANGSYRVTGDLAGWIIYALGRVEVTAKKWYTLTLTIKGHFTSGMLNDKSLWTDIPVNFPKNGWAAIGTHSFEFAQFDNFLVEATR
As to `Cc1nn(-c2ccccc2)c2c1N(CCCC(=O)NCc1ccc(N(C)C)cc1)C(=O)CS2`, the “activation” value is inactive: -17.3%.
With `COc1cccc(CNS(=O)(=O)c2ccc3c(c2)CCN3C(=O)C2CCC2)c1` the figure was inactive: -2.39%; with `O=C(Nc1ccc(F)cc1)N1CCN(c2ccccc2F)CC1`, inactive: -11.4%.
The result for `Cc1nn2c(=O)cc(COC(=O)c3ccco3)nc2s1` reads inactive: -1.34%; that for `COc1cccc(CNCCSc2nnnn2C)c1OCc1ccccc1Cl`, inactive: -3.82%.
The result for `Cc1cc(Cl)ccc1OCC(=O)Nc1c(Cl)ccc2nsnc12` reads inactive: 5.61%; that for `O=C(NCc1cccs1)c1ccc(Cn2c(SCc3ccccc3)nc3cccnc32)cc1`, inactive: -6.39%; that for `O=C(Nc1c(C(=O)N2CCN(c3ccccc3)CC2)oc2ccccc12)c1ccc(Br)o1`, inactive: -20.7%.
Regarding `CC(C)(C)CC(C)(C)c1ccc(O)c(-n2nc3ccccc3n2)c1`, the “activation” value is inactive: -15.8%.
The result for `Cc1ccc(C)c(S(=O)(=O)c2nnn3c2nc(Nc2ccc(C)c(C)c2)c2sccc23)c1` reads inactive: -10.5%; that for `O=C(CC(c1cccs1)N1Cc2ccccc2C1=O)Nc1ccc(F)c(F)c1` (configuration not stated), inactive: -14.6%; that for `COc1ccc(N2C(=O)CS(=O)(=O)C23C(=O)N(Cc2cccc(F)c2)c2ccccc23)cc1OC` (configuration not stated), inactive: -24.4%.
With `Cc1cc(=O)[nH]c2nnc(SCc3ccc(F)cc3)n12` the figure was inactive: -16.6%; with `CCOC(=O)c1ccc(-n2c(CCC(=O)O)ccc2-c2ccc(Br)cc2)cc1`, inactive: -8.29%.
With `COc1ccc(Cn2c(SCC(=O)NCc3ccc(Cl)cc3)nc3ccsc3c2=O)cc1` the figure was inactive: -17.5%; with `Cc1noc(-c2ccc(-c3noc(-c4cccc(F)c4)n3)cc2)n1`, inactive: -20.5%; with `NC(=O)C1CCN(C(=O)c2cccc(NC(=O)c3nsc4ccccc34)c2)CC1`, inactive: -9.51%.
In the case of `O=C(C1COc2ccccc2O1)N1CCN(c2nc3ccc(F)cc3s2)CC1` (configuration not stated), the “activation” value is inactive: -20.4%.
With `CSC1=NC2(CCN(C(=O)NC3CCCCC3)CC2)N=C1c1ccc(C)cc1` the figure was inactive: -10%.
With `COc1ccc(N2Cc3cccc(C(=O)Nc4cc(C)cc(C)c4)c3C2=O)cc1` the figure was inactive: -9.74%; with `CCc1cccc(C)c1Nc1c(-c2ccccc2)nc2sccn12`, inactive: -4.8%; with `CCc1c(CN2CCN(c3cccc(C)c3C)CC2)csc1C`, inactive: 2.31%.
With `Fc1ccc(CNc2ncnc3onc(-c4ccc(F)cc4)c23)cc1`, the “activation” value is inactive: -25.7%.
`Cc1ccc(C#N)c(=O)n1CC(=O)Nc1ccccc1C(F)(F)F`: the “activation” value was inactive: 17.4%.
As to `O=C(C1COc2ccccc2O1)N(Cc1cccnc1)c1nc2ccc(Cl)cc2s1` (configuration not stated), the “activation” value is inactive: -15.7%.
With `Cn1c(=O)c2c(nc(SCC(=O)Nc3ccccc3)n2Cc2ccccc2F)n(C)c1=O` the figure was inactive: -13.5%; with `Nc1c(C(=O)Nc2ccc(OC(F)(F)F)cc2)nnn1Cc1ccccc1`, inactive: -11.9%.
With `CCOc1ccc(CNC(=O)CSc2cc(=O)n(CC)c3ccccc23)cc1` the figure was inactive: -18.2%; with `CCN(CC)S(=O)(=O)c1nnc(NC(=O)COc2ccccc2F)s1`, inactive: -14.9%.
With `Cc1cccc(C)c1NC(=O)NCCc1c[nH]c2ccccc12`, the “activation” value is inactive: -6.27%.
With `COCCCn1c(=N)c(C(=O)NCc2ccco2)cc2c(=O)n3ccccc3nc21` the figure was inactive: -2.16%; with `CCCNC(=O)C1CCC(Cn2c(=O)c3sccc3n(Cc3ccccc3F)c2=O)CC1` (configuration not stated), inactive: -8.66%.
With `Cc1ccc2c(c1)-c1onc(C(=O)N3CCN(c4ccc(Cl)cc4)CC3)c1CO2` the figure was inactive: -4.67%; with `O=C(NC1CCCCC1)c1ccc(Cn2c(SCc3ccc(F)cc3)nc3cccnc32)cc1`, inactive: -7.23%; with `Cc1ccc(-n2c3nc(=O)[nH]c(=O)c-3cc3c(C)nn(-c4ccccc4)c32)cc1Cl`, inactive: -11%.
Take `CCOC(=O)N1CCN(Cc2nc3cc(NC(=O)c4ccccc4[N+](=O)[O-])ccc3n2C(C)C)CC1`: the “activation” value was inactive: 1.18%.
Take `Brc1ccc(-c2nc3ccccn3c2Nc2ccc3c(c2)OCCO3)o1`: the “activation” value was inactive: -35.5%.
With `O=S(=O)(c1ccccc1)c1nnn2c1nc(NCc1ccc(F)cc1)c1sccc12` the figure was inactive: -18.2%.
The result for `COc1cccc(N2CCN(c3ncnc4c3nc3n4CCCCC3)CC2)c1` reads inactive: 1.72%; that for `Cc1oc(-c2ccc(Cl)cc2)nc1CS(=O)CC(=O)N1CCN(c2cccc(C(F)(F)F)c2)CC1` (configuration not stated), inactive: -16.9%; that for `CCCCN(CC)C(=O)CSc1nc2n[nH]c(C)c2c(=N)n1-c1cccc(OC)c1`, inactive: -14.5%.
With `CNCCCN1c2ccccc2CCc2ccccc21` the figure was inactive: -12.1%.
With `COc1ccccc1CNC(=O)CCn1nc(C)c2c(C)n(-c3ccccc3)nc2c1=O`, the “activation” value was inactive: -16.5%.
The result for `COc1ccc(OCC(=O)NC2CC(=O)N(c3cccc(OC)c3)C2)cc1` (configuration not stated) reads inactive: -9.64%; that for `CN(C)S(=O)(=O)c1ccc2c(c1)N(CC(=O)Nc1ccc(OC(F)(F)F)cc1)C(=O)CS2`, inactive: -35.7%; that for `C=Cc1ccc(Cn2c(C(=O)O)c(CNC3CCCC3)c3ccc(C)cc32)cc1`, inactive: -7.53%.
As for `CCOC(=O)c1c(S(=O)(=O)N2CCC(C(=O)NCc3ccc(F)cc3)CC2)c(C)n(C)c1C`, the “activation” value was inactive: -18.6%.
With `Cc1cccc(N(C)C(=O)CCS(=O)(=O)c2ccc3c(c2)oc(=O)n3C)c1` the figure was inactive: -17.7%; with `COc1ccc(NC(=O)c2cc(S(=O)(=O)N3CCCCCC3)cn2C)c(OC)c1`, inactive: 1.54%; with `CCN(CC)CCOc1ccccc1C(=O)CCc1ccccc1`, inactive: -13.8%.
With `COc1ccc(NC(=O)CN2CCN(Cc3ccc(F)cc3)S2(=O)=O)cc1Cl` the figure was inactive: -13.6%; with `CC(C(=O)NCc1ccc(Cl)cc1)n1ccc2cc(S(=O)(=O)N3CCCCCC3)ccc21` (configuration not stated), inactive: -0.135%.
The result for `CCCN(CCC)CC(O)Cn1cc(/C=C/C(=O)c2ccc(C)cc2)c2ccccc21` (configuration not stated) reads inactive: -10.2%; that for `CCC(=O)N1CCc2cc(Br)cc(S(=O)(=O)N3CCN(c4ccc(C)cc4)C(C)C3)c21` (configuration not stated), inactive: -0.0868%.
`CCOC(=O)c1c(C)[nH]c(C)c1S(=O)(=O)N1CCC(C(=O)N2CCN(c3ccccc3)CC2)CC1`: the “activation” value was inactive: -8.65%.
With `O=C(NCc1ccccc1Cl)C1CCCN(S(=O)(=O)c2cccc3nsnc23)C1` (configuration not stated) the figure was inactive: -15.5%; with `COc1ccc(OC)c(CNC(=O)c2c3c(nc4ccccc24)C(=O)N(C2CCCCC2)C3)c1`, inactive: -7.77%; with `CCOC(=O)c1c(C)[nH]c(C)c1S(=O)(=O)N1CCC(C(=O)N2CCN(c3cccc(Cl)c3)CC2)CC1`, inactive: -6.23%.
The result for `Cc1ccccc1-c1noc(-c2cccnc2NCc2ccco2)n1` reads inactive: -9.74%; that for `COc1ccc(N2CCN(c3csc4ccc(Cl)cc4c3=O)CC2)cc1`, inactive: -16.9%; that for `Cc1c(C(=O)N(Cc2ccc(N(C)C)cc2)CC2CCCO2)oc2ccc(Cl)cc12` (configuration not stated), inactive: -15.8%.
The result for `CCOc1ccc(Nc2nc3cc(Cl)c(Cl)cc3nc2-n2nc(C)cc2C)cc1` reads inactive: -12.2%; that for `COc1ccc(Cl)cc1NC(=O)c1cn(C2CCCCC2)c(=O)c2c1c1ccccc1n2C`, inactive: -14.9%.
With `COc1ccccc1CCNC(=O)C1CCN(c2nnc(-n3cccc3CNc3ccc(C)cc3)s2)CC1`, the “activation” value was inactive: -5.69%.
The result for `CCOC(=O)c1c(C)[nH]c(C)c1S(=O)(=O)N1CCCC(C(=O)Nc2ccc(C)cn2)C1` (configuration not stated) reads inactive: -6.56%.
Consider `CCOc1ccc(Nc2ncnc3c2nc2n3CCCC2)cc1`, for which the “activation” value was inactive: -8.44%.
The result for `O=C1OC(CN2CCOCC2)CN1/N=C/c1ccc([N+](=O)[O-])o1` (configuration not stated) reads inactive: -10.7%; that for `CCc1ccccc1Nc1nn2c(=O)c3ccc(C(=O)NCc4ccccc4OC)cc3nc2s1`, inactive: -8.34%.
In the case of `Cc1ccc(-n2nc(CO)c(C(=O)NCCCc3ccccc3)n2)cc1C`, the “activation” value is inactive: -15.3%.
With `CCN(c1ccccc1)c1ccc2cc(S(=O)(=O)N3CCCC3)ccc2n1` the figure was inactive: -16.9%.
The result for `COc1ccccc1Cn1cc(C(=O)c2ccc(C)cc2)c(=O)c2cc(C)ccc21` reads inactive: -16.4%; that for `COc1ccc(CNC(=O)c2cc(-c3ccc(C)cc3)nc3n[nH]c(-c4ccc(Br)cc4)c23)cc1`, inactive: -14.1%; that for `NS(=O)(=O)c1ccc(NC(=O)CN2C(=O)COc3ccc(Cl)cc32)cc1`, inactive: -7.05%.
The result for `O=C(O)c1ccc2nc(-c3cc4cccc(O)c4oc3=O)[nH]c2c1` reads inactive: -14.2%; that for `Cc1ccc(C)c(S(=O)(=O)c2nnn3c2nc(NC(C)C)c2sccc23)c1`, inactive: -0.615%.
`CCOC(=O)CNC(=O)Nc1cc(C(=O)NCc2ccccc2OC)ccc1N1CCCC1`: the “activation” value was inactive: -5.87%.
With `CCOC(=O)c1oc2ccc(S(=O)(=O)n3nc(-c4cc(OC)c(OC)c(OC)c4)cc3N)cc2c1C` the figure was inactive: -3.69%; with `Cc1ccccc1C(=O)NC1(C(F)(F)F)N=C(c2ccccc2)N(C2CCCCC2)C1=O` (configuration not stated), inactive: -8.3%.
The result for `CCOc1ccccc1CNC(=O)c1c(C)oc2ncnc(N3CCOCC3)c12` reads inactive: -7.57%; that for `CCOc1ccc(NC(=O)CSc2ccc(-c3sc(-c4ccccc4)nc3C)nn2)cc1`, inactive: -13.1%; that for `COC(=O)C(CCSC)NC(=O)c1cc2c(n(-c3ccc(Cl)cc3)c1=O)CCCC2=O` (configuration not stated), inactive: -16.1%.
With `O=C(NC(=O)c1ccccc1)Nc1ccc(-c2cc(C(F)(F)F)nn2-c2ccccc2)cc1` the figure was inactive: -10.2%; with `CCOc1ccc(NC(=O)C2CCCN(c3ccc(Sc4ccc(C)cc4)nn3)C2)cc1` (configuration not stated), inactive: -7.95%.
Take `CCC(Oc1ccccc1F)C(=O)N1CCC(c2nc3ccccc3s2)CC1` (configuration not stated): the “activation” value was inactive: -9.98%.
The result for `COc1ccc(Cl)cc1NC(=O)C1CCCN(c2ncnc3onc(C)c23)C1` (configuration not stated) reads inactive: -17%.
With `CC(C)C(=O)Nc1ccccc1OCc1cc(=O)n2ccccc2n1` the figure was inactive: 1.35%; with `Cc1ccc2oc(-c3ccc(C)c(NC(=O)c4ccc(N5CCC(C)CC5)c([N+](=O)[O-])c4)c3)nc2c1`, inactive: -25%; with `O=C(CCCN1C(=O)C(c2ccccc2)Oc2cccnc21)Nc1ccccc1C(F)(F)F` (configuration not stated), inactive: -2.35%.
With `CCCn1c(CNC(=O)c2ccc(F)cc2)nc2ccccc21` the figure was inactive: -11.6%; with `CC(C)CN(CCCNC(=O)CN1N=C(c2ccc(Cl)cc2)CCC1=O)CC(C)C`, inactive: -15.9%; with `Cc1cccc(NC(=O)c2ccc3snnc3c2)c1C`, inactive: -8.84%.
For `O=c1c2cc3c(cc2n(Cc2ccc(F)cc2)c(=O)n1Cc1nc(-c2ccccc2)no1)OCO3`, the “activation” value was inactive: -3.58%.
With `Cc1cccc(NC(=O)c2cc3c(=O)n4cccc(C)c4nc3s2)c1C` the figure was inactive: 1.74%.
On to `CCOc1ccccc1NC(=O)C(CC(C)C)NS(=O)(=O)c1ccc2c(c1)oc(=O)n2C` (configuration not stated), for which the “activation” value is inactive: 0.333%.
With `COc1cc(CNC(=O)c2ccc3nc(CCc4ccccc4)oc3c2)cc(OC)c1OC` the figure was inactive: -11%; with `COC(=O)c1c(SC)nc2ccccc2c1OCc1ccc(Cl)cc1`, inactive: -6.55%; with `Clc1ccc2c(c1)NC(c1ccncc1)=NC(c1cccs1)=N2`, inactive: -12.7%.
